Among the data in the RNAGym collection of RNA variant scans (doi:10.1093/nar/gkz1192) are self-cleavage values, retold here.

Read counts are not given, so values of variants with three or more changes are uncertain.

The labels stand for the following.
B1: CPEB3 Ribozyme (parent)
chain: UAACAGGGGGCCACAGCAGAAGCGUUCACGUCGCAGCCCCUGUCAGAUUCUGGUGAAUCUGCGAAUUCUGCUGUAUAUCUC

The variants in the series derive from B1. The experiment in a line: self-cleavage, relative activity (ratio to wild type); higher = more cleavage; in vitro, sequencing. In outline:
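Libraries of CPEB3 self-cleaving ribozyme mutants came from rounds of error-prone PCR and carried barcodes, which DNA sequencing matched to variants. In vitro transcription used T7 RNA polymerase at 37°C for 5 hours, with a further 15 min in DNase I before EDTA stopped the reaction; the ribozymes cleaved during both steps. The RNA was reverse transcribed with template switching and sequenced on Illumina. Relative activity is the cleaved/total read fraction of a variant divided by that of the unmutated ribozyme, averaged over three batches with at least 5 reads.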
For the variant A13U A15G C37A C39A U60C U69G, the self-cleavage stood at 0.13.
The value for A13U A18U A45U U80C was 0.34; that for A13U A65G U67A U72A was 0.23.
The value for A13G U48C U54A A56U A65G was 0.13; that for A13G U43C U66C was 0.18; that for A13U A28G U72A was 0.37.
Then A13U A64G U69G, with 0.2.
Regarding A13U A28C C29G A45G A57G U69C, the self-cleavage worked out at 0.05.
On to A13U A20G C44U U60C, for which the self-cleavage was 0.09.
As to A13U C17A U41C, the self-cleavage was 0.16.
The value for A13U A18G U31A A45G C62A U80C was 0.16.
Then A13U A20U G33A U51C, with 0.04; and A13U A21G U48C, with 0.36; and A13U A21U G33A U48A, with 0.16.
The value for A13U A21G A35G U78C was 1.19.
With A13U C29U A56G A57G, the self-cleavage stood at 0.07.
A13U A15G C44A U60C A64G: the self-cleavage came to 0.11.
Then A13U A47G A57G, with 0.8; and A13U A15G U43A U66C, with 0.36.
The value for A13U A56U U67A A75G U76C was 0.32; that for A13U A35G U51A U58C was 1.25.
The value for A13U A18G A35G U54A A57U C59A U67C was 0.24; that for A13U A21U U25G C32U U54C U78A U80C was 0.08.
On to A13U C38U U54A, for which the self-cleavage worked out at 1.08.
Then A13U A45G U51C A56G G70A U74A U80C, with 0.38; and A13U A15G U41A U67C, with 0.16.
For the variant A13U A18U U43A U51A, the self-cleavage was 0.6.
Then A13U A35G U72C, with 1.18; and A13U A35U U48C A64G, with 0.11.
Then A13G U54C A64U, with 0.2.
A13U C32A U41A A65G U72G: the self-cleavage was determined as 0.07.
For the variant A13U C23G C32A U41C, the self-cleavage is 0.22.
As for A13G U41G U49C A56U, the self-cleavage worked out at 0.16.
Then A13U A20U A35G, with 0.74.
As to A13U A28U U41C A57G U69A, the self-cleavage is 0.37.
Regarding A13U A21G C23U U43C A56U U66C, the self-cleavage amounted to 0.27.
The value for A13U A18U U41C U51C U60A was 0.35; that for A13U A21G U80C was 0.7; that for A13U A20G U25A U26A A56G U78C was 0.06.
Then A13U A18U A21G C44A, with 0.28; and A13U C27A C34G C40U, with 0.31.
The value for A13U A21G C40U U43A U67C was 0.05.
On to A13U A18G A35U U49A A57U A75G A77G, for which the self-cleavage was 0.06.
As to A13U C32A U48A, the self-cleavage worked out at 0.09.
Turning to A13U A21U A28G U78C, the self-cleavage was found to be 0.19.
The value for A13U A15G U26A U48C C59A C62G U69C was 0.09; that for A13U A28G A47G was 0.56; that for A13U A21U A57U was 0.21.
For A13U A28U U69C, the self-cleavage stood at 0.23.
Then A13G U43C A45U U54C, with 0.3; and A13U A45U U78C, with 0.73.
Regarding A13U A15G A18U U25C U67C A77G, the self-cleavage was determined as 0.05.
On to A13U A21G U51G, for which the self-cleavage was found to be 0.49.
As for A13U A56G C68A G73A U78C, the self-cleavage stood at 0.51.
Then A13G U48A U78C U80G, with 0.47; and A13U A35G U60C U66A A77G, with 0.66; and A13G U41G U43C G70U U72A U80C, with 0.47.
Then A13U C40U U41C, with 1.19.
As for A13U A64U U66C, the self-cleavage is 0.16.
Then A13U A21G A35G U43A U72C, with 0.14; and A13U A18G C40U A56G U60A, with 0.19; and A13U A18U G42A U49A U51C G61A, with 0.04.
On to A13U A18U A35G A56G, for which the self-cleavage came to 0.59.
The value for A13G U54C U60A U74C was 0.25.
A13U A28G U58A G70A G73U U78C: the self-cleavage was found to be 0.11.
For A13U C14A A15C A21G U25C A64G, the self-cleavage amounted to 0.02.
With A13U A47U A75U, the self-cleavage amounted to 0.81.
The value for A13U C27A A56U U74G U78A was 0.12; that for A13U A20U U48C U76C A77G was 0.11.
The value for A13U A21G U41A U43A was 0.18; that for A13U A20G C68A was 0.16; that for A13U A28C A64G A77U was 0.55.
Then A13U A15G A64G U67C, with 0.42.
On to A13U A45C U51A U69G U72C, for which the self-cleavage was determined as 0.1.
The value for A13U A56G U66C U72C A75U was 0.3.
The value for A13U A15U A18U U31C G52C U60A was 0.06; that for A13U A21G U43C was 0.18.
With A13U A18U A45G, the self-cleavage came to 0.24.
For A13U C27U U78A, the self-cleavage worked out at 0.18.
The value for A13U A35G C40U was 1.17.
The value for A13U A77G U78C was 1.
The value for A13U C29G U41A was 0.3; that for A13U A35U U67C was 0.12.
